The values that follow come from PMC10726135.

This is one part of the list. At the low end of the ranking, values are background and their order means little. The protein was read in a cell extract, so binding may be indirect.

In the experiment the target is T1, HNF4alpha2 (COS-7 nuclear extract) (UniProt P41235).
T1 sequence: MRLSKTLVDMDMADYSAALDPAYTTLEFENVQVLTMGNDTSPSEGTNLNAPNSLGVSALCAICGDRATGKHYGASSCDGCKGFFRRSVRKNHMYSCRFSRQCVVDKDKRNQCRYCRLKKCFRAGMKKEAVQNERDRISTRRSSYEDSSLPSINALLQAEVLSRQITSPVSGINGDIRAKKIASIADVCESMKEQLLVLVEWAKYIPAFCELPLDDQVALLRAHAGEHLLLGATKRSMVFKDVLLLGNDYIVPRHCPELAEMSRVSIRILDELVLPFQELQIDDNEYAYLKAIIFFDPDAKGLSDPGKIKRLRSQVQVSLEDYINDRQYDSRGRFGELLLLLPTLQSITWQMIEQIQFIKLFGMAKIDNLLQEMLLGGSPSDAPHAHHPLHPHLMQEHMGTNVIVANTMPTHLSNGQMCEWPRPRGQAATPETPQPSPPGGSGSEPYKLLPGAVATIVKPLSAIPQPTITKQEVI
The experiment in a line: protein-binding microarray. The following applies: COS-7 nuclear extract on double-stranded Agilent 4x180k PBM; binding buffer, salt, pH and temperature not given; high values mean tight binding; double strand, one strand shown; sequences stand for … in …GCCTAGGGAGATTAGAGTATCGGTCGA
Turning to ACCAAAACCAAGATAGTGACGGAGGTGACC, the binding signal (log2 normalized intensity) was 1.18.
Take ATTCCTGGGAACTGCGGACATAGCTTGCCA: the binding signal (log2 normalized intensity) is -1.15.
ATTTGGAAGTAAGAACCCCACTATTCAGGA: the binding signal (log2 normalized intensity) was determined as 1.98.
In the case of GCAAGGAAATAAAAGAGCCTGAGCCACTTC, the binding signal (log2 normalized intensity) was -1.12.
As to TCAACAAGACCCTGCCCTTTCCCCCGCCCT, the binding signal (log2 normalized intensity) worked out at 4.89.
CCTCTGCCTTTCAGGCAGGAGACGATGGTT: the binding signal (log2 normalized intensity) was -0.828.
Regarding CTGACAGAACTAAGCTGTTGCGTAAGGGTC, the binding signal (log2 normalized intensity) worked out at 1.51.
With GCAAGATCTCACAGATTAAGTCACGTGGAG, the binding signal (log2 normalized intensity) worked out at 0.448.
Turning to TTAAAAAGCAAACAAAACACGGACTTTGAA, the binding signal (log2 normalized intensity) is 4.06.
In the case of AGGTCACTTTACAGATAAAGAAACCATAGA, the binding signal (log2 normalized intensity) was -1.2.
As for CTGCCCTTCTGACCTCCCAGGGATACTGTG, the binding signal (log2 normalized intensity) came to 2.47.
Next, CTCCTAAGCAGGACAGCAGAGTGGAGGCCA: -1.2; ACATTCTTCCATATAACCCTTGAACCTTCT: 4.97; AACAGGCAGAAGAATGGATGAGCTAATCAG: -1.09.
For the sequence TAGTGCATAGTGGGTTTCGGTGTCATCTAG, the binding signal (log2 normalized intensity) turned out to be 1.41.
On to GCAGTTTGTCAAGTGCCCGGATAAACTTCC, for which the binding signal (log2 normalized intensity) was -1.14.
For CTAAGCACCTCTGCTTATCTCAACTGATTT, the binding signal (log2 normalized intensity) is -1.13.
Consider AGCTTTTTGTTTGTGTAAGTGTGGGTTTAA, for which the binding signal (log2 normalized intensity) is 2.06.
Next, GTCACTCCTTCCTCAAGACCCTTTACTGCC: 2.2; TCTCTGGAGGTCACTGCTGGTGGGTGGGGG: 0.804.
Take TGGAGTGCACTGTGATCTTTAGAAAATACT: the binding signal (log2 normalized intensity) is -0.194.
Regarding CAGGGATCAAATCCTAACATGCTGCAGGCA, the binding signal (log2 normalized intensity) is -0.931.
Regarding CCAAACAATGCAAGAGAGGTCACAACAGAA, the binding signal (log2 normalized intensity) was -0.621.
Take CCCCACCATTGTTATCTGATCAAATTCCAC: the binding signal (log2 normalized intensity) was found to be 2.47.
Turning to CAAAGTCCTCCAACTGCCACGGTAAATATT, the binding signal (log2 normalized intensity) came out at 1.2.
On to TCTCTCTCTCTTTCTTCCCCCACTCCAAGT, for which the binding signal (log2 normalized intensity) is 5.09.
Next, CCAAATTCCAGCTGAAGTTCCCAGCCCTTC: -0.272.
Regarding CAGGGGTCATCAGATAGATGGTCAGTGAAC, the binding signal (log2 normalized intensity) is 1.44.
As to GGCGACCTTCGCTCGGCTCGCTCTCCCTGC, the binding signal (log2 normalized intensity) is -0.986.
As to CCAGTGGTCCCTGGAGATAATAGTGGCTGA, the binding signal (log2 normalized intensity) was -1.05.
As to GTAAGGTCGACCTTTAAACGTTTGCTGGAT, the binding signal (log2 normalized intensity) worked out at 4.17.
Next, TTAGAGAGAGAAATTGCTTAAGTGCTTGTC: -0.00985; GTTGCTTCCACCTATGAGTCTGTAAAGTCA: 0.468; GCAATTCCCCTGGGCCCACGGCTCTGCACA: -1.23.
With CTTTACATTTATTAGAACCTTATGTGAGTA, the binding signal (log2 normalized intensity) stood at 1.53.
For CCCAAACTTAAAAGAAGCTACTAGCAAATC, the binding signal (log2 normalized intensity) is -1.11.
TAAAGCGGACGGGCTGCGGAGGCGACTGCA: the binding signal (log2 normalized intensity) is -0.854.
TCTTATGTCCCTCCTGACCTTTGGACTTGA: the binding signal (log2 normalized intensity) worked out at 10.3.
On to ATTTTATGCTTACTGCCTCAGGGAGGAGTT, for which the binding signal (log2 normalized intensity) is -1.17.
For the sequence GCAGTAACGGCAGGGTTGTGCAGGACTGCG, the binding signal (log2 normalized intensity) is -1.26.
Consider GGTTAAAATTTATCTATTGGGTACAATGTT, for which the binding signal (log2 normalized intensity) was found to be 2.06.
With AAATCTTAAGGAGGAGTGCTAGAGAAAGGA, the binding signal (log2 normalized intensity) is -1.1.
As for CAGGGACCTTTGTTCCTTTACACATGAGAG, the binding signal (log2 normalized intensity) was determined as 2.21.
Turning to GAGGAAAAGGAGGAGTTTGACCCCAGGTAG, the binding signal (log2 normalized intensity) was found to be 4.41.
Next, AGGAGCCAATTATGCTGGCAGTAGGGAGGT: -0.989; GACGCAGAGAAGCACTGCAGTTTAAGTCTG: -1.18.
With ACTTGAGGTATGATGCATCCTGAGGCAAAA, the binding signal (log2 normalized intensity) was -0.917.
The value for GGAAATGATAGCATCCCAGTAGAAAAAAAA was -1.13; that for AGTCCCATAACTGACTGTGTCTGTTTACCC was 0.97; that for ACTGATAGGTGCGTGGGGGAGGGGCCAGGA was -1.13.
TTCTTAGGGAGATGGATATATGTACAGCTG: the binding signal (log2 normalized intensity) is 0.153.
On to GTTTTTTTCACCTGGGGCCTTGGGCCACCT, for which the binding signal (log2 normalized intensity) was -1.13.
On to TTTCTCTTTTGACCTTTGGACTTTCACATT, for which the binding signal (log2 normalized intensity) turned out to be 10.5.
On to ACAAAGAAATGTAACCTTTGGCCAATTGCA, for which the binding signal (log2 normalized intensity) was found to be 4.29.
The value for GCAATTGGTCAAAGGTCACCAGTGAGCCAA was 4.99; that for CAGATGGAATGTGTGCCCGTCACCTCTGAA was -0.532.
Regarding TCCTTCCTCAAGACCCTTTACTGCCATCTG, the binding signal (log2 normalized intensity) is 0.877.
Turning to CCTTTTTTGAAGGTTAAAGTCCATTTTTGA, the binding signal (log2 normalized intensity) worked out at 6.53.
On to GGGAGGGTGGGTTATCAGTAAGAGCATCAG, for which the binding signal (log2 normalized intensity) was determined as 0.55.
Turning to AAAGAGACAAAGCTTTGAAGATGCTTTTTG, the binding signal (log2 normalized intensity) is -1.18.
On to ATTCCTTCCCAAGTGCTAGCTTGGTCTGAA, for which the binding signal (log2 normalized intensity) is -0.145.
Next, AGCTGCTTCGGCCAGCACAGGAGGCCTCTC: -1.11.
As for ACATGTACAGTATTGCGTAAGTTGTTCCTT, the binding signal (log2 normalized intensity) amounted to 1.68.
In the case of AAACTGCAGCTGCTGCACTGATAAGAAAGC, the binding signal (log2 normalized intensity) is -1.17.
As for CTGACCCCAGCATGTTTGGGTCACAATCAC, the binding signal (log2 normalized intensity) stood at 2.09.
As to GTCTTCCTGGTGACCTTTGTTTGGTCAAAT, the binding signal (log2 normalized intensity) was determined as 4.06.
Take TTTCACCTCTGCACCCCACCAAGGACTGGA: the binding signal (log2 normalized intensity) turned out to be 2.54.
As for GTAGATAAGCAGATCTGGGCAATGTCAACA, the binding signal (log2 normalized intensity) was -0.929.
Next, CACTGCTTTGTTCCCTGGCTCACTGACTCA: -0.952.
CAATTAGAGCAAAGGTTACTGCAGAGAAGA: the binding signal (log2 normalized intensity) was found to be 1.54.
For the sequence CCAGAACGTGGCCTTTAATCAACTGCAGGA, the binding signal (log2 normalized intensity) was -0.991.
For TAACTCAAAATCTGCTCTGTCCTGAGATGT, the binding signal (log2 normalized intensity) worked out at 1.06.
